Laboratory results published in the supplement of paper PMC10126150.
Values marked as one replicate rest on one cluster of the flow cell; about a third of the high ones do not repeat.

system: ATP; assay: switch fluorescence ratio, 500 uM ATP over buffer (Cy3 cluster intensity, sum of 5 cycles each) (fold (ratio)); higher = stronger signal-on switching upon ATP binding; sequences stand for … in TCGTCGGCAGCGTCAGATGTGTATAAGAGACAGTTTTTTTTTTTTTTTTTTTTTTTTT…TC; details: aptamer strand: ATP DNA aptamer (quencher-CACCTGGGGGAGTATTGCGGAGGAAGG + anchor), 100 nM annealed; ATP concentration: 500 uM; one replicate
Outline: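 Values give the fluorescence ratio for each switch-domain sequence, averaged from per-cluster ratios of summed target-cycle to summed buffer-cycle Cy3 intensity. The Cy3-labelled switching-strand clusters sat on a modified Illumina MiSeq flow-cell, were annealed to 100 nM quencher-labelled ATP aptamer, and were imaged in selection buffer, then after 15 min with 500 uM ATP at 22 °C. Five cycles ran with NaOH stripping and re-annealing between them, and clusters outside 100-1000 RFU were excluded.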
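Also: ATP exposure 15 min at 22 °C before imaging.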

Sequence	switch fluorescence ratio
GGTGGAGTTC	0.985
GGTGGCCGGG	0.991
GGTGGGACTA	0.985
GGTGGGTCAG	1.02
GGTGGTGTGG	1.03
GGTGTAAGGA	0.943
GGTGTAATGA	1.01
GGTGTAATTT	0.95
GGTGTACGAC	1.02
GGTGTCATTT	1.06
GGTGTCTTCC	1.1
GGTGTGACCT	1.04
GGTGTGAGGC	1.08
GGTGTGCACA	1.06
GGTGTTCAAT	1.01
GGTGTTGTCA	0.993
GGTTAAAGCT	1.1
GGTTAAAGGC	1.03
GGTTAAGCCC	0.993
GGTTAATGTA	0.922
GGTTAGAC	1.01
GGTTAGACAT	1
GGTTAGAGAG	0.998
GGTTATGTTT	0.995
GGTTATTTCG	1.02
GGTTCAATGG	1.06

Sequence	switch fluorescence ratio
GGTTCAGTGG	1.01
GGTTCAGTT	1.01
GGTTCATGCA	0.985
GGTTCCGTTT	1.02
GGTTCGTGC	0.967
GGTTCGTGTA	0.992
GGTTCGTTC	0.99
GGTTCTAGAA	0.942
GGTTCTGTCT	0.994
GGTTCTTGAG	0.968
GGTTCTTTGG	0.984
GGTTGAGTAC	1.09
GGTTGCAGCA	1.1
GGTTGCATCT	1.01
GGTTGCTTCC	1.54
GGTTGGCAAA	0.959
GGTTGTACA	0.971
GGTTGTCAA	1.05
GGTTGTTA	0.952
GGTTTAGTCG	0.961
GGTTTCTATA	1
GGTTTGACT	0.94
GGTTTGGCGC	1.02
GGTTTGTTGC	0.985
GGTTTTGACG	1.12
GGTTTTGGAC	1.03

Sequence	switch fluorescence ratio
GGTTTTTAGT	1
GTAAAAAAGT	1.01
GTAAAACAAA	1.01
GTAAAAGC	1.01
GTAAAATGGA	0.969
GTAAAATTAT	1.02
GTAAACAAGA	0.957
GTAAACCGAC	1.11
GTAAATCGGC	1.01
GTAACACCCG	0.981
GTAACCGGAG	1.04
GTAACCGT	1.01
GTAACGGTTT	1
GTAACGTACG	1.51
GTAACGTCTC	1.03
GTAACTAAGA	1.02
GTAAGAACAA	1.02
GTAAGCGTCC	1.1
GTAAGGACAC	1.07
GTAAGGACGG	1.01
GTAAGGATAG	0.987
GTAATAACC	1.02
GTAATAGCGG	1.01
GTAATAGTTA	0.983
GTAATATATT	0.965
GTAATCCAGT	1.02

Sequence	switch fluorescence ratio
GTAATCGAA	0.97
GTAATCGCAG	0.987
GTAATTGAGC	1
GTACAAGGA	0.957
GTACCGGGTA	1
GTACCTCGCG	0.973
GTACCTCGGG	0.976
GTACGAATC	1.04
GTACGACTGG	0.993
GTACGTCGTC	0.979
GTACTAAGTA	1.06
GTACTAGTCG	1.01
GTACTGATCG	0.998
GTACTGCTCT	1.03
GTACTGGTTC	1.03
GTACTTGGAA	1
GTAGAAACTT	1.08
GTAGAAAGGG	1.11
GTAGAAGTAA	1.01
GTAGAATCCT	1.07
GTAGACGAGA	0.927
GTAGACGGGA	0.989
GTAGAGGGGC	0.971
GTAGAGGGTC	0.968
GTAGATGTGG	0.949
GTAGGAATGG	1

Sequence	switch fluorescence ratio
GTAGGAGGAT	0.95
GTAGGATAGA	0.948
GTAGGGCCGA	1.02
GTAGGGGT	0.978
GTAGGTGGGA	0.976
GTAGTAAAAT	1.04
GTAGTCGAGC	0.991
GTAGTCGCCT	0.981
GTAGTCGGGA	1.01
GTAGTCGGGG	1.07
GTAGTCTTAC	1.07
GTAGTGGCGC	0.949
GTAGTGGGCT	0.996
GTAGTTCGAA	0.997
GTAGTTGTAG	0.991
GTATACAAAT	0.915
GTATATAAAC	1.02
GTATATTAAG	1.01
GTATCCATTG	0.99
GTATGAAGGA	0.987
GTATGAGCTC	0.999
GTATGCTAGT	0.987
GTATGGGTGC	1.03
GTATGTATGG	1.01
GTATTAAAAA	0.972
GTATTCCCGG	1.46

Sequence	switch fluorescence ratio
GTATTCCGCC	1.09
GTATTGCATC	1.01
GTATTGCCGA	0.95
GTATTGGGAC	1
GTATTGTACA	1.02
GTCAACGGGG	0.994
GTCAAGTTGT	0.997
GTCAATAGCC	1.08
GTCAATCTCT	1.07
GTCACACCC	1.21
GTCACTTATG	1.01
GTCAGACCAT	0.985
GTCAGCGTCC	1.06
GTCAGCTACG	0.989
GTCAGGAT	1.01
GTCAGGCGTT	1.01
GTCAGGGCTC	0.962
GTCAGGTGAT	1.75
GTCAGTAGCC	0.98
GTCAGTATAC	1.5
GTCATACACT	1.02
GTCATAGTAG	1.01
GTCATATTGG	0.989
GTCATCCATT	1.04
